Experimental data published in PubChem BioAssay AID1347165 (National Center for Advancing Translational Sciences (NCATS), 2019).
In all, about 220,000 compounds went through this assay and about 5,700 (2.6%) were called active. Inconclusive means that the source gave no clear call. Such entries were picked first, then a sample of the others. The call rests on the fitted dose curve; in most records, active means well fitted inhibition curve with a large enough effect; inconclusive means small, poorly fitted or top-dose-only effect; inactive means no such curve, though single readings can be large or run the other way. Where the call is inconclusive, the potency comes from a doubtful curve fit.
Further: nearly all actives have a fitted effect of over 70% in size.
Potency means the concentration at half of the fitted maximal effect; tags describe the fitted curve by direction and shape.
Wherever activity change, negative = inhibition is given: 0% is about no effect.

The compounds below were run against Lysine-specific demethylase 5B (Homo sapiens) (UniProt Q9UGL1) (assay: Primary screen for KDM5B Histone Demethylases FDH-coupled qHTS). Conditions: FDH-coupled NADH fluorescence (FDH is formaldehyde dehydrogenase); activity change, negative = inhibition: at 57.7 µM (top of the series) unless noted.
UniProt Q9UGL1, sequence (Q9UGL1 whole entry, looked up): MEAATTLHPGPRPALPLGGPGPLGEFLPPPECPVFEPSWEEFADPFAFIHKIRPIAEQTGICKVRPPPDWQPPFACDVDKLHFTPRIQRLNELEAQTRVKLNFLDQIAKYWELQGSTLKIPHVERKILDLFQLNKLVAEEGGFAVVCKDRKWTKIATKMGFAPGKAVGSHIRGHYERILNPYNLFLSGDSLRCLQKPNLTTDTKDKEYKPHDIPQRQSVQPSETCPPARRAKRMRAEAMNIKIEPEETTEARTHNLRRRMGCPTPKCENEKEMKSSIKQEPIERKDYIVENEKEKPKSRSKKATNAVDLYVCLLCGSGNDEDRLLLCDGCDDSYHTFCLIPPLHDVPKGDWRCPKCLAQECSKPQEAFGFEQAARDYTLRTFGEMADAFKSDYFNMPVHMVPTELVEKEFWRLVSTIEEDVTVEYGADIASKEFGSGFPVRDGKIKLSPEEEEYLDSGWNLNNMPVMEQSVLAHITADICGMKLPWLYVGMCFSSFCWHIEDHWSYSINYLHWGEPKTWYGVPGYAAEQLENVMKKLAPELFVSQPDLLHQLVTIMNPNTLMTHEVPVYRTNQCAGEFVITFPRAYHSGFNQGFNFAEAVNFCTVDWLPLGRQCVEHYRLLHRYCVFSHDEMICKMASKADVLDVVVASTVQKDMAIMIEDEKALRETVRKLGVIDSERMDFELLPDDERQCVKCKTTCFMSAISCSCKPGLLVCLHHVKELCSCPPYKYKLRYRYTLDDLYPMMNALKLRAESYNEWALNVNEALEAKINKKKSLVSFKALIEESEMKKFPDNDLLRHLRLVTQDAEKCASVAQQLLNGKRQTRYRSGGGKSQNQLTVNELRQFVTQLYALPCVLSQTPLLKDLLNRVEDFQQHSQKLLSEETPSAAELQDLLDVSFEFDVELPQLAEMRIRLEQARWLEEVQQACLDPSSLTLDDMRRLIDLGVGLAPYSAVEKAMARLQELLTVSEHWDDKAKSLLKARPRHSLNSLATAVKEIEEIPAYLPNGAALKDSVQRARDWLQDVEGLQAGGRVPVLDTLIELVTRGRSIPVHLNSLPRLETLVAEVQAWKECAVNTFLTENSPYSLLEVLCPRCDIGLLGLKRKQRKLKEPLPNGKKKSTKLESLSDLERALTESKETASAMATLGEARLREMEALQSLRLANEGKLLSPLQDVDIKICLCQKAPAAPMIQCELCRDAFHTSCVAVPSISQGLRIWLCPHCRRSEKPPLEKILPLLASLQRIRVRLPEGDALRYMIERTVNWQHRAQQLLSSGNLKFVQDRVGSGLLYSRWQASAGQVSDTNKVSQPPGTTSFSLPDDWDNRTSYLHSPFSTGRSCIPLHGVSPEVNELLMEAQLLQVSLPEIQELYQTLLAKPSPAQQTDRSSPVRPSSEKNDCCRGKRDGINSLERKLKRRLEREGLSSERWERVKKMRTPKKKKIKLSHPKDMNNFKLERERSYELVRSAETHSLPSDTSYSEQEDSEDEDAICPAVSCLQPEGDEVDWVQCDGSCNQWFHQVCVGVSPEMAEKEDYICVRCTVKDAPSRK
Summary of the method: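 qHTS format, multiple compound concentrations. Buffer 50 mM HEPES pH 7.5/0.01% Tween-20; 200 nM KDM5BΔAP final; 10 min compound preincubation; substrate-mix levels 12.5 µM peptide, 25 µM α-KG, 0.25 mM NAD⁺; 30 min RT; ΔRFU.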
For `O=C(NCc1ccc(F)cc1)c1ccc(Nc2ncc(-c3cccc(F)c3)cn2)cc1`, the Potency was inconclusive: 17.8 µM [inhibitor, partial curve, poor fit].
With `Cc1ccc(-c2c3c(=O)n(C)c(=O)n(C)c3c3n2CCOC3c2coc3ccccc3c2=O)cc1` (stereo not drawn) the Potency was inconclusive: 14.1 µM [inhibitor, partial curve, poor fit].
For `COc1ccc(NC(=O)c2ccc3c(c2)NC(C)(COc2ccccc2)CO3)cc1OC` (stereo not drawn), the Potency was active: 31.6 µM.
With `CC(=O)N1c2c(cc(Br)cc2S(=O)(=O)Nc2ccc(OC(F)(F)F)cc2)CC1C` (stereo not drawn) the Potency was inconclusive: 1.78 µM [inhibitor, partial curve, poor fit].
`Cc1ccc(C(=O)N2CC(Oc3ccc4c(c3)OCO4)C2)cc1` was tested, and the Potency was inconclusive: 35.5 µM [inhibitor, full curve, poor fit].
In the case of `CCOC(=O)c1sc2nc(CN(C)Cc3ccccc3)[nH]c(=O)c2c1C`, the Potency is reported as inconclusive: 39.8 µM [inhibitor, single point].
In the case of `CC(C)OCCCNC(=O)c1ccc2c(c1)N(S(C)(=O)=O)CC2`, the Potency is reported as inconclusive: 22.4 µM [inhibitor, partial curve].
For `N#C/C(=C/c1cccc(Oc2ccc(Cl)cc2)c1)c1nc2ccccc2[nH]1`, the Potency was inconclusive: 20 µM [inhibitor, partial curve, poor fit].
`COc1ccc(-c2nc3c(s2)CN(C(C(=O)O)c2c[nH]c4cc(F)ccc24)CC3)cc1` (stereo not drawn) was tested, and the Potency was inconclusive: 22.4 µM [inhibitor, partial curve, poor fit].
For `Cc1ccc(/C=C/C(=O)O)c(Br)c1`, the “activity change, negative = inhibition” value was inactive: 4.74%.
For `Cc1ccc(C(=O)NCCn2cccc2-c2nc(-c3ccc4c(c3)OCO4)no2)cc1C`, the Potency was inconclusive: 31.6 µM [inhibitor, single point].
For `COCCNC(=O)C[C@@H]1c2nc(-c3ccccc3)sc2C[C@@H]2[C@](C)(CO)[C@H](O)CC[C@]21C`, the Potency was active: 28.2 µM.
`CCOc1ccccc1C(=O)N1CCC(C(=O)c2ccc3c(c2)OCCO3)CC1` was tested, and the “activity change, negative = inhibition” value was inactive: -0.74%.
For `COc1cccc(CNC(=O)Cn2nc3c(cc2=O)CCCC3)c1OC`, the activity change, negative = inhibition was inconclusive: -32.1% [inhibitor].
With `Cc1ccc(NC(=O)/C(C#N)=C/c2cc(C(C)(C)C)c(O)c(C(C)(C)C)c2)cc1C` the “activity change, negative = inhibition” value was inactive: 7.06%.
In the case of `Cc1nnn2c(C(=O)NCc3ccc(Cl)cc3)cccc12`, the Potency is reported as active: 35.5 µM.
`CCOc1ccc(CNC(=O)Cn2cc3c(n2)-c2c(oc(C(=O)N4CCCC4)c2C)CC3)cc1` was tested, and the Potency was inconclusive: 2.51 µM [inhibitor, full curve, poor fit].
For `O=C(c1ccccc1)N1CC2(CCCN2Cc2cccnc2)Cc2ccccc21` (stereo not drawn), the Potency was inconclusive: 50.1 µM [inhibitor, partial curve, poor fit].
With `CCOC(=O)N1CCN(c2nc3ccc(C(=O)c4ccccc4)cc3n3cnnc23)CC1` the Potency was inconclusive: 39.8 µM [inhibitor, single point].
With `Cc1c(NC(=O)C(C)(C)c2ccccc2)cccc1C(=O)N1CCc2sccc2C1` the “activity change, negative = inhibition” value was inactive: 16.5%.
`Cc1nn(CCC(=O)Nc2ccc(C(C)C)cc2)c(C)c1S(=O)(=O)N1CCC(C)CC1` was tested, and the “activity change, negative = inhibition” value was inactive: -3.5%.
In the case of `COCCOc1ncccc1-c1noc([C@@H]2CCCN2Cc2ccc(OC)cc2O)n1`, the Potency is reported as inconclusive: 35.5 µM [inhibitor, single point].
With `CC(C)CCN1CCC12Cc1ccccc1NC2=O` (stereo not drawn) the “activity change, negative = inhibition” value was inactive: -2.85% [at 86.2 µM].
For `COCCN1CCOc2nc(-c3cc4ccccc4o3)ncc2C1=O`, the Potency was inconclusive: 11.2 µM [inhibitor, partial curve, poor fit].
In the case of `N#Cc1ccc(CN2CCC3(CN[S+](=O)([O-])c4cnccc4O3)C2)cc1` (stereo not drawn), the “activity change, negative = inhibition” value is reported as inactive: 11.5% [at 115 µM].
`COc1ccccc1N1CCCc2ncc(C(=O)N(C)Cc3ccccc3)cc21` was tested, and the Potency was active: 35.5 µM.
With `Cc1ccc(OCC(=O)NNC(=S)NC(=O)C(C)(C)C)c(Br)c1` the Potency was inconclusive: 20 µM [inhibitor, single point].
`C#CCN(C)C(=O)C[C@@H]1c2nc(-c3cccnc3)sc2C[C@@H]2[C@](C)(CO)[C@H](O)CC[C@]21C` was tested, and the Potency was active: 31.6 µM.
For `Cc1cc(C)cc(-c2ccc(C=O)cc2)c1`, the Potency was active: 31.6 µM.
For `Cc1ccc(C2Nc3ccccc3C(=O)N2CCCN2CCOCC2)cc1` (stereo not drawn), the Potency was inconclusive: 31.6 µM [inhibitor, partial curve, poor fit].
`O=C(Cc1c[nH]c2ccccc12)Nc1nc2ccc(Cl)cc2s1` was tested, and the “activity change, negative = inhibition” value was inactive: 14.3%.
In the case of `O=C1[C@@H]2C[C@@H](CN2C2CCCC2)Oc2ccccc2N1Cc1ccccc1`, the Potency is reported as inconclusive: 28.2 µM [inhibitor, partial curve].
`CCOC(=O)c1cc(S(=O)(=O)N2CCN(c3cccc(OC)c3)CC2)[nH]n1` was tested, and the activity change, negative = inhibition was inconclusive: -35% [inhibitor].
In the case of `Cc1cc(C)c2[nH]c(C(=O)Nc3ccc4c(c3)OCO4)cc2c1`, the Potency is reported as inconclusive: 14.1 µM [inhibitor, partial curve, poor fit].
In the case of `CN(C)C[C@@H]1CN(c2ccccn2)C[C@H]1NC(=O)c1cnco1`, the Potency is reported as active: 31.6 µM.
For `O=S(=O)(Cc1ccccc1)NCc1cccc(CNS(=O)(=O)Cc2ccccc2)c1`, the “activity change, negative = inhibition” value was inactive: 16.2%.
For `CCN(CC)C(=O)c1sc2nc(N3CCOCC3)c3c(c2c1N)CCN(C)C3`, the Potency was inconclusive: 25.1 µM [inhibitor, partial curve, poor fit].
In the case of `Cc1cccnc1N1CCN(Cc2ccc(-n3cncn3)cc2)CC1`, the Potency is reported as inconclusive: 22.4 µM [inhibitor, single point].
With `O=C(Cc1ccc(F)cc1)NCc1nnc2c(-c3nc(C4CC4)no3)cccn12` the Potency was active: 31.6 µM.
`N#Cc1c(NC(=O)CSc2nc3ccccc3[nH]2)sc2c1CCCCC2` was tested, and the “activity change, negative = inhibition” value was inactive: -8.83%.
In the case of `CCOc1ccc(C2=C(C(=O)CC)Sc3nncn3N2C(=O)CC)cc1`, the Potency is reported as inconclusive: 15.8 µM [inhibitor, partial curve, poor fit].
In the case of `CCOCCOC1CCN(C(=O)c2cc(-c3cccc(OC)c3)n[nH]2)CC1`, the “activity change, negative = inhibition” value is reported as inactive: -19.9%.
With `CCCCOC(=O)Cn1nnc2sc(-c3ccccc3)cc2c1=O` the Potency was inconclusive: 44.7 µM [inhibitor, single point].
For `CCc1[nH]c2ccc(C(=O)O)cc2c1C`, the Potency was inconclusive: 28.2 µM [inhibitor, single point].
`Cc1ccc(CNC(=O)CCc2ccc3c(c2)CN(C(=O)NC(C)C)CCO3)o1` was tested, and the Potency was inconclusive: 39.8 µM [inhibitor, single point].
With `CCCc1cc(NCc2ccccn2)n2ncc(-c3ccccc3)c2n1` the Potency was inconclusive: 28.2 µM [inhibitor, partial curve, poor fit].
For `COC(=O)Cc1c(C)c2ccc(OCc3cccc(Cl)c3)cc2oc1=O`, the Potency was inconclusive: 28.2 µM [inhibitor, partial curve, poor fit].
In the case of `O=C1NC2(CCCN(Cc3ccsc3)C2)COc2ccccc21` (stereo not drawn), the Potency is reported as inconclusive: 35.5 µM [inhibitor, partial curve, poor fit].
For `NC(=O)c1nsc(C(=O)N(c2cccc(F)c2)C(C(=O)NC2CCCC2)c2ccco2)c1N` (stereo not drawn), the Potency was inconclusive: 35.5 µM [inhibitor, partial curve, poor fit].
With `COc1ccc(Nc2cc(C(=O)NCc3cccs3)c3ccccc3n2)cc1` the Potency was inconclusive: 35.5 µM [inhibitor, partial curve, poor fit].
For `Cc1cccc(NC(=O)c2ncoc2-c2ccco2)c1C`, the Potency was inconclusive: 35.5 µM [inhibitor, single point].
With `CCOC(=O)c1ccc(NC(=O)N2CCN(Cc3nc(-c4ccc(C)cc4)oc3C)CC2)cc1` the “activity change, negative = inhibition” value was inactive: -0.169%.
For `CN1CCC2(C1)CN(CC1CC1)c1ccc(C(=O)NC3CC3)cc12` (stereo not drawn), the Potency was inconclusive: 35.5 µM [inhibitor, partial curve, poor fit].
`CCOC(=O)N1CCN(C(=O)c2cc3occc3n2Cc2ccccc2Cl)CC1` was tested, and the Potency was inconclusive: 25.1 µM [inhibitor, partial curve, poor fit].
With `CNC(=O)CCn1ncc2cc(OCc3ccccc3-c3cccc(O)c3)ccc21` the “activity change, negative = inhibition” value was inactive: -24.4% [at 86.2 µM].
`CCOc1ccccc1NC(=O)N1c2ccccc2Sc2ccccc21` was tested, and the Potency was inconclusive: 31.6 µM [inhibitor, single point].
`O=C(Oc1ccc(Br)cc1C(=O)/C=C/c1ccccc1F)c1ccco1` was tested, and the Potency was inconclusive: 14.1 µM [inhibitor, partial curve, poor fit].
`Cc1cc(C)c(CN2CCC3(Cc4ccccc4CNC3=O)C2)c(C)c1` (stereo not drawn) was tested, and the “activity change, negative = inhibition” value was inactive: 7.94% [at 115 µM].
`CCN1c2cc(C(=O)NCc3ccccc3OC)ccc2C(=O)N2CCCCC21` (stereo not drawn) was tested, and the Potency was inconclusive: 22.4 µM [inhibitor, partial curve, poor fit].
`COc1ccc(CN2Cc3[nH]nc(-c4ccnn4C)c3CC2=O)cc1` was tested, and the “activity change, negative = inhibition” value was inactive: 3.83% [at 86.2 µM].
For `Cc1oc(-c2nc(C#N)c(NC3CC3)o2)cc1S(=O)(=O)N(C)c1ccccc1`, the “activity change, negative = inhibition” value was inactive: -7.52%.
`Cc1[nH]c(SCC(=O)NCCc2ccccc2)nc1Cc1ccccc1` was tested, and the “activity change, negative = inhibition” value was inactive: 19.5%.
For `COc1ccc2nc(C)c(C(=O)NC34CC5CC(CC(C5)C3)C4)cc2c1`, the “activity change, negative = inhibition” value was inactive: -26%.
In the case of `Cc1ccc(-n2ncc(C(=O)NCCN3CCCC3)c2C2CCN(C(=O)OC(C)(C)C)CC2)cc1`, the Potency is reported as inconclusive: 5.62 µM [inhibitor, partial curve, poor fit].
For `O=C(O)C1CCc2nnc(C3CCN(C(=O)c4ccc5c(c4)OCO5)CC3)n21` (stereo not drawn), the Potency was inconclusive: 56.2 µM [inhibitor, partial curve, poor fit].
In the case of `O=C(NC1CCCC1)C1(c2ccc(F)cc2)CCCC1`, the “activity change, negative = inhibition” value is reported as inactive: 15.7%.
With `COc1ccc(Cn2c(C3CCN(C(=O)c4ccccc4)CC3)n[nH]c2=O)cc1` the “activity change, negative = inhibition” value was inactive: -8.87%.
For `O=C(CC[C@@H]1CNC(=O)[C@@H]2C[C@H](NC(=O)c3cccc(F)c3)CN12)NC1CC1`, the Potency was inconclusive: 44.7 µM [inhibitor, partial curve, poor fit].
